According to the supplement of paper PMC3334620:
Whole data set: some 33,000 sequences, median “E-score (-0.5 to 0.5)” near -0.043, cut for the highest 2% near 0.37. Some of the results follow.

Biological target: T1, Upc2 (UniProt Q12151)
T1 sequence: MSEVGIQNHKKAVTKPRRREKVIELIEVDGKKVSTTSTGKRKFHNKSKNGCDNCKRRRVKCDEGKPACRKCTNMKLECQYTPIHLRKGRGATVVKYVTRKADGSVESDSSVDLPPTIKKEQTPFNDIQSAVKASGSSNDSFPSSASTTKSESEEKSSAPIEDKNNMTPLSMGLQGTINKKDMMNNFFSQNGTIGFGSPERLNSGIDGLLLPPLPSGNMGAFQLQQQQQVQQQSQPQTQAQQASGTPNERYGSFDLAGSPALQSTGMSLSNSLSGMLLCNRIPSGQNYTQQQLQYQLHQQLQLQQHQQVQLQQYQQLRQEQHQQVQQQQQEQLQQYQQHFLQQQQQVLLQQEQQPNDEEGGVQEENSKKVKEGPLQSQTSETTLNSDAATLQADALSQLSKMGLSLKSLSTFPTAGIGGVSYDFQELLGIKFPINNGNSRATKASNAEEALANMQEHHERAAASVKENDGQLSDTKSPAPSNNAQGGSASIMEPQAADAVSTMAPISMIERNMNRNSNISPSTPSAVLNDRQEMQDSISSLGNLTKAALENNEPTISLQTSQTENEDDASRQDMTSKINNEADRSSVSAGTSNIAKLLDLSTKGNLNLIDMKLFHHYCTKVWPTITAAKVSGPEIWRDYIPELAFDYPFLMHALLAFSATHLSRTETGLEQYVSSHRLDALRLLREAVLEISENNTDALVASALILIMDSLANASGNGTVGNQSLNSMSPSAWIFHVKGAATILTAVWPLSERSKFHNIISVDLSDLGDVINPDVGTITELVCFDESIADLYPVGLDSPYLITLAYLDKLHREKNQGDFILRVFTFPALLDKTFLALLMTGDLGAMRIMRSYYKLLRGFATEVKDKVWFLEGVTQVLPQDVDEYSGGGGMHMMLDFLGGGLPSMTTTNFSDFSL
Experiment: PBM E-score (8-mer binding enrichment) (E-score (-0.5 to 0.5)); higher = stronger / more preferred TF binding; most listed sequences are background and not binding sites
Conditions: protein concentration: 200 nM; construct: GST-full length
Summary of the method: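 Yeast transcription factors carrying a GST tag, as full-length proteins or DNA-binding domains, were produced by PURExpress in vitro transcription/translation. About 100-200 nM protein was applied to universal all-10-mer Agilent arrays, double-stranded by primer extension on fresh or once-stripped slides. Bound protein was detected with fluorescent anti-GST, and scans were normalised with masliner. The Universal PBM Analysis Suite gave each ungapped eight-base word, pooled with its reverse complement, an E-score, a modified Wilcoxon-Mann-Whitney statistic.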

Sequence | PBM E-score
AGGTTCGA | -0.0107
AATGATTG | -0.0849
TAAACACA | 0.0639
AGGATCCG | 0.0293
ATGTCAAC | 0.108
CGCGCATC | 0.0134
ATCTGGGA | -0.175
CAAGGGCG | -0.188
CTCCTTCC | -0.19
ACGCAGAT | 0.197
ATGAATAA | -0.137
GACGGACC | -0.0885
AGGGAACT | -0.193
GCTATGGA | -0.141
AGCTAACT | -0.089
ACAGTATC | -0.0504
CAAGATTC | -0.161
GAATCAGA | -0.0159
AGATAGAC | 0.038
ATATATGC | 0.0988
ACGCTTGG | 0.0331
CTGCTTGA | -0.208

Sequence | PBM E-score
ACGGATTA | 0.171
AATGTGAA | 0.0387
ACTGCGCT | -0.152
TCGTACCA | 0.476
CTAAACCA | -0.0817
ATATCATC | -0.194
CCACCACG | -0.0532
GCCAAGCC | -0.168
AACCTCAC | -0.0292
CCAGTCTC | -0.142
ACTGGAGG | -0.267
GCTACCAA | -0.0323
GCCGCGCC | -0.201
AGATAGTG | 0.0466
CCTAGAAG | -0.208
CTGAATTC | -0.199
ACTCTGGA | 0.0882
AGGCTTCA | -0.158
ATGTTCCA | -0.0665
ATAGGGAC | -0.271
GCGTTGCA | -0.0573
AAAGCCTG | -0.249

Sequence | PBM E-score
GCCTCGAA | 0.00343
TAGGCCTA | -0.0194
TAAGAACA | 0.125
ACACAGTG | -0.192
GTTCTTTA | 0.145
GATCAACC | -0.0371
ATTCATGC | -0.00825
GTTCGCTA | 0.229
ACCCTGAA | -0.0634
AGCAACGA | 0.263
GATACGCA | 0.276
GGCAAGAA | -0.193
GGGGCACA | -0.238
GAGCAGGA | 0.116
AGCCACCA | -0.294
ATATATAG | 0.106
TCTAATAA | 0.0272
ACGTATGC | 0.228
ATTGAGGA | -0.13
AAGGGTGG | -0.0817
TCGCGACA | 0.0843
CCAGGGGA | -0.202

Sequence | PBM E-score
CTTACCGA | 0.203
AAGCATGA | -0.186
AATGATGA | -0.154
CTGGGATA | -0.289
AGAATTTA | -0.0894
TCGCAAAA | 0.216
GGCGATAC | 0.0891
TCGCTCAA | 0.285
CGGGGGAC | -0.255
CAAAGTAG | -0.00091
AATCTCCA | -0.135
ACTATAGG | 0.0267
ACTTCACC | -0.0347
AGCTTATA | 0.0662
CCCTGAGC | -0.158
CATTGGAA | -0.156
ACCATCAG | -0.114
CTGGCCTC | -0.0796
CCTCTAAG | -0.19
GGGCGTAA | 0.0283
